# Data as given in article PMC12136788.
# This is one part of the list.
# T1: UNK ZnF1-3 (human, UniProt Q9C0B0 31-174)
# T1 sequence: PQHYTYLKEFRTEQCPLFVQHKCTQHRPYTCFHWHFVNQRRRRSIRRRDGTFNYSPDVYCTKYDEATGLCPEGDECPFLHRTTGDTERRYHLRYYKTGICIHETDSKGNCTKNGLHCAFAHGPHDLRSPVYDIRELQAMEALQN
# B1: chr12:53618122:53618123:+_ENSMUSG00000035133_ENSMUST00000110725|mus_hu|motif|central (ssRNA)
# RNA: GGGAGUUCUACAGUCCGACGAUCUCUUGUUCCCUCUAAGUUGAUGUAUUCUUCAUAAUCAGGAUGAUUUUUUAAUUUAUUACGGACAGUUUUCCAAGUUGCAUGAUAAUCUCUCACAGUCUGCACAAGUUUUUCAAACUUAUCCAACAGAGGAUUGAGCAUCA
# B2: chr7:87826631:87826632:+_ENSG00000008277_ENST00000398209|hu_hu|motif|central (ssRNA)
# RNA: GGGAGUUCUACAGUCCGACGAUCGCAUCAGCAAACUGUGGAGGCCAGAAGUUUUGCUGGGCAUUUUGUUCUCUCACUCAACGGCUCACUCAAUAAAACUGCCUCCAGACUGUGCACAGGUUAAAGGGAUAUCACAUGUUUUGGCAACAGAGGAUUGAGCAUCA
# B3: chr9:110467127:110467128:+_ENSMUSG00000044791_ENSMUST00000153838|mus_hu|FALSE|FALSE (ssRNA)
# RNA: GGGAGUUCUACAGUCCGACGAUCUUCUUUUCCAUAUCUCUGGAACUGAUAGUCAAACGUUAACUCUGAGCCUGAAGGAACCAGUUUGGUGGUAAAAAACCCAACCCUCAGUUGUCCGUUCACAGUCCAUUUUUGGGUUUCACACAACAGAGGAUUGAGCAUCA
# B4: chr2:153237265:153237266:-_ENSMUSG00000061411_ENSMUST00000109784|mus_mus|mus_mus_mus_hu_False|8_108 (ssRNA)
# RNA: GGGAGUUCUACAGUCCGACGAUCAAAAAAAAGAAAAAAAAAGUGUCCUUGUGCCCAAAGUCUCAGGUGCUUGGAGUGUGGCUAGAAACAGCUCUUUUGGAUCCCACCUCUUUCAAAAACAAAAUGUCCAACUGGUGGAGGCAGCAACAGAGGAUUGAGCAUCA
# B5: 142144148_142144364_600_3pUTR_ENSG00000114127_ENST00000264951|human|control|control (ssRNA)
# RNA: GGGAGUUCUACAGUCCGACGAUCAUUUUAUGCUCUCCUUCUCCAGGAGUCUCAUGGCCUGAGAAGUAGAUGGUAACUCCUUGCCAUGACUUGUCUGUGGAAAUUUUCAUAUUUACAAAAUACUUCAGAUGUUCAUGUAACCUGCAACAGAGGAUUGAGCAUCA
# B6: chr22:32879901:32879902:+_ENSG00000100225_ENST00000397426|hu_mus|hu_hu_hu_mus_False|38_98 (ssRNA)
# RNA: GGGAGUUCUACAGUCCGACGAUCCUCUUCCAUACUCGCAUUAUCUUGAAUUGACUCAGCUUCAACAUUUUGACUAGGCCCUUCCAUACUGUCAUCAUUCCAAACACCAAAUGGGGUGGCCUGUCCUUGGGAUGAAUCAGUCCCCAACAGAGGAUUGAGCAUCA
# B7: chr4:17845017:17845018:+_ENSG00000109805_ENST00000514176|hu_mus|hu_hu_hu_mus_False|8_58 (ssRNA)
# RNA: GGGAGUUCUACAGUCCGACGAUCGCUCUCUUAACUUGUAUCUUCAUUAAGGAACUCUGCAAGGUUAAGUUUACUUUUUCUAGUGCUAGCUGUUUUGGCUCGUCUGGGUAAUCUCAUCUUCAUUUCUAUUCUGGUUCCAUGAUCCAACAGAGGAUUGAGCAUCA
# B8: 79689884_79690004_1227_CDS_ENSG00000067715_ENST00000261205|human|control|control (ssRNA)
# RNA: GGGAGUUCUACAGUCCGACGAUCUUGCUCAUUGAAGACAGGAUUAAGGGUUUUUCGGUGGACUUUUGUCUCAAAUUUCUUCUUCUUAUCAGGUAGCAGAAACACUUUCACGUAAGGAUCAGAUGUGCCCCCCAUGUCCAAGGCCAACAGAGGAUUGAGCAUCA
# B9: chr12:48362563:48362564:+_ENSG00000134291_ENST00000256686|hu_hu|hu_hu_hu_mus_False|78_108 (ssRNA)
# RNA: GGGAGUUCUACAGUCCGACGAUCUCCGAAGGGUGAAUCGAUAGACCCUUGCGGGGGUGGUAAAAACCACUUUGUAUGGGGAAGGAAAAGAAACGCCAAAAACUUUCCAAAAAGCGGGGGUGGGGUGAGGCGGGAGGGGGAGGUCAACAGAGGAUUGAGCAUCA
# B10: chr7:44244176:44244177:+_ENSG00000106636_ENST00000223369|hu_mus|hu_hu_hu_mus_False|78_88 (ssRNA)
# RNA: GGGAGUUCUACAGUCCGACGAUCACUGUCGCUCCGGACGUAGACAUGGCACAGAUAGUCUUGUUCUUUGACAGAAGCUCUGCUGCCUUUCCCCGAGCGUUCCACAAUCAGUUGACUUGUAAAGGUCAUGAAUUCCUGCACACUCAACAGAGGAUUGAGCAUCA
# B11: 84674927_84675047_7096_3pUTR_ENSG00000065615_ENST00000369681|human|control|control (ssRNA)
# RNA: GGGAGUUCUACAGUCCGACGAUCCUUCCCAUGGUCUUGGGCAGCUCUGGCCCUGUGGCUUUCAGGGUACAGCCUCCAUCCUGGCUGCUUUCAUGGGCUGGUGUUGAGUAUCUGCAGCUUUUCCAGGCACCUGGUACAAGCUGUCAACAGAGGAUUGAGCAUCA
# B12: chr6:38652254:38652255:-_ENSG00000124767_ENST00000373365|hu_hu|hu_hu_hu_mus_False|48_98 (ssRNA)
# RNA: GGGAGUUCUACAGUCCGACGAUCCGAGAACUUCAUAAUGGGAAAAUCAAGCUUCUGCAGGAGGGUCAGUCCAAGAACCCUCGUAUAAAAAUCCAGUGACUUCUUAGGAUCCUUAAUUCUUAGCAUCGUUUGCUGCAGUAGAAACAACAGAGGAUUGAGCAUCA
# B13: chr5:71489826:71489827:+_ENSG00000131711_ENST00000296755|hu_hu|FALSE|FALSE (ssRNA)
# RNA: GGGAGUUCUACAGUCCGACGAUCUGAGAGAUACUCGGUAAACUCAGAAAGUCCUUCCAUUUCUGGCAAGAUAGAAGCUGAAUUGAGUUUAAUAUUGAUGAAGUCUUGGAGAUUGUGUCUGUCAAGAUUGGAGUUCUUCCAGUCCAACAGAGGAUUGAGCAUCA
# B14: chr2:160604868:160604869:+_ENSG00000136536_ENST00000409591|perfect_dup|FALSE|FALSE (ssRNA)
# RNA: GGGAGUUCUACAGUCCGACGAUCUGCCUCUGGUUCAGAGCUAUGAUUUUGGCUGAGCGACGACAACCCCCAUCUUCGCCUAAGAAAUCUAAAUCCCUGAGAUGCUUCAGCUGCCCUGCCCUCACUGACGUCAGAGGACGAGGACAACAGAGGAUUGAGCAUCA
# B15: chr8:117878989:117878990:-_ENSG00000164754_ENST00000297338|hu_hu|hu_hu_hu_mus_True|1_68 (ssRNA)
# RNA: GGGAGUUCUACAGUCCGACGAUCCCAGAGGCCCUCGUUUACUGAGGACAAAAUGUGCGUAGAACAUUGUUCUGGCUUGCUAUGAAAUAAGAAGAAACCUGGAUCUCGGCGGGGAGCCGGGAGGGGUGGGUGGCCCGGGGGAGGCAACAGAGGAUUGAGCAUCA
# B16: 103941370_103941490_1487_CDS_ENSG00000075413_ENST00000216288|human|control|control (ssRNA)
# RNA: GGGAGUUCUACAGUCCGACGAUCUGCAUUCCCAAGCAUGGGACUGGCUGGAGCAAUUCCCUUUCCUCCAACAGCACUGCCACUUGAUUUCCGGGAGGAAAUUCCAUCUUCUUUGAGGUCACUAUCUGCAGUGCUGGUCUGACUCAACAGAGGAUUGAGCAUCA
# B17: chr5:132424114:132424115:+_ENSG00000170606_ENST00000304858|hu_mus|motif|central (ssRNA)
# RNA: GGGAGUUCUACAGUCCGACGAUCACCAAAAAACUUGCUGAUCUUCUCUUUCACUGCAGGGAUUCGUGUGGCACCACCAACGGUCUCCACUGCAUAAAUAUCUUCUUUCUUUAACUUGGAUUGCUCCAAGACGCUUCGAAGUGGCAACAGAGGAUUGAGCAUCA
# B18: chr12:85022504:85022505:+_ENSMUSG00000010608_ENSMUST00000048155|mus_mus|FALSE|FALSE (ssRNA)
# RNA: GGGAGUUCUACAGUCCGACGAUCCACAAGGCCAAUUUUCUUGGCUUCUGUUUCAUAUAUCAAUAAUCUCCACAUUUUGACUAUAAAAACUUCUGCUUCUUCAUCUAGUACCAUGGCAACAUCAUCUAAAAUGCUCUGUGGUGACAACAGAGGAUUGAGCAUCA
# B19: chr17:64801638:64801639:+_ENSG00000154229_ENST00000413366|hu_mus|hu_hu_hu_mus_False|1_38 (ssRNA)
# RNA: GGGAGUUCUACAGUCCGACGAUCUAUAUAUAUAUAUACAUAUGUACACAUAUAUAGUAAAACCCUAGUUAAACGUGUAAAGUAGCCAUUCAUUUUUGAAAUUUUAUCUACAUUAAAAAAUUAAUAUAUCUGAUAGAGUGCCCACAACAGAGGAUUGAGCAUCA
# B20: chr2:5814250:5814251:-_ENSMUSG00000025816_ENSMUST00000102981|mus_mus|FALSE|FALSE (ssRNA)
# RNA: GGGAGUUCUACAGUCCGACGAUCUUCCUUUCAGGCUUCUGAAUUUCUGGUAGAACUGCACAGAAAGGUUUAAUAACUUCUAAAAACUUGAUGCCCAUGGCGGCGGCUCAGCACACCCGGCGGGCACCCGCGGCCUCGCAGCUGCAACAGAGGAUUGAGCAUCA
# B21: chr15:78764095:78764096:+_ENSG00000136381_ENST00000258886|hu_mus|FALSE|FALSE (ssRNA)
# RNA: GGGAGUUCUACAGUCCGACGAUCGUUCACUUGAUGAGCCAUUCCAGUUCCAGGCGGGAUGACUGCCACAUUCUUAAAAGCUCCUGAGCUCCACUUGAAAAACUGAAGCCUCUCUCGAUUUCUGCCAAAUUCUACUUCUUGAUUCAACAGAGGAUUGAGCAUCA
# B22: chr16:94664741:94664742:+_ENSMUSG00000040785_ENSMUST00000117648|mus_hu|mus_mus_mus_hu_False|8_108 (ssRNA)
# RNA: GGGAGUUCUACAGUCCGACGAUCUGGCAUGGAUCUUGGUAGCUGAUAUUCAGGAGAAAGGCUGGCCAAGGGUGUAUAUAUGCUGGUGUACUGGGGCAAACCUGGUAACACGUUUAUGUAUGCUGGCCGCUGGGUGAUGAUAUCCAACAGAGGAUUGAGCAUCA
# Molecular target: T1, UNK ZnF1-3
# Assay: nsRBNS (natural sequence RNA bind-n-seq); RBNS binding buffer (assumed for nsRBNS): 25 mM Tris pH 7.5, 150 mM KCl, 3 mM MgCl2, 0.01% Triton X-100, 500 ug/ml BSA, 20 U/ml SUPERase-In, 4 C; UNK is unkempt and MSI1 is Musashi-1; names of the RNAs are library labels; protein concentration not given here; high values mean tight binding
row,Binder,binding signal
1,B1,1.11 enrichment R
2,B2,1.87 enrichment R
3,B3,0.832 enrichment R
4,B4,1.73 enrichment R
5,B5,0.586 enrichment R
6,B6,0.885 enrichment R
7,B7,0.368 enrichment R
8,B8,1.23 enrichment R
9,B9,2.15 enrichment R
10,B10,0.772 enrichment R
11,B11,0.483 enrichment R
12,B12,1.14 enrichment R
13,B13,0.825 enrichment R
14,B14,0.706 enrichment R
15,B15,2.06 enrichment R
16,B16,0.868 enrichment R
17,B17,0.803 enrichment R
18,B18,0.883 enrichment R
19,B19,2.12 enrichment R
20,B20,1.1 enrichment R
21,B21,0.98 enrichment R
22,B22,1.1 enrichment R
